Test results published in the supplement of paper PMC4466236.
In all, about 33,000 sequences were measured (“E-score (dimensionless, -0.5 to 0.5)”: median about -0.058, highest 2% from about 0.35 on). The list shows a part of the results.

Each sequence was assayed on MvaT (assay: PBM 8-mer E-score (mean of HK and ME arrays) (E-score (dimensionless, -0.5 to 0.5)); higher = stronger relative binding preference; most listed sequences are background and not binding sites).
How it was run: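 Full-length P. aeruginosa MvaT, with glutathione S-transferase fused to its N-terminus (cloned into pTH6838 by isothermal assembly), was tested by protein binding microarray using a previously described protocol. Two universal double-stranded 60-mer arrays (ME and HK) were used, each with a constant 25-mer primer region and a variable 35-mer region covering all 8-mers. The rank-based 8-mer E-score (-0.5 to 0.5) is the mean of the two arrays, parsed with a custom Python script.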

| Sequence | PBM 8-mer E-score |
| --- | --- |
| CGATCCCA | -0.08 |
| AAGAAACT | 0.186 |
| ATCTGTTA | 0.0984 |
| AGGGGGCA | -0.247 |
| CCTTATCC | -0.0829 |
| CCCCCTGA | -0.251 |
| ACGAGCAA | -0.0499 |
| ATTATGGC | 0.202 |
| CAAAATGA | 0.0724 |
| GTGGTATA | 0.279 |
| AACATAAT | 0.371 |
| CCGCAGTC | -0.09 |
| CCTTACAG | 0.0714 |
| CTTTTATA | 0.31 |
| TACAACCA | 0.102 |
| ACGAATCC | -0.0548 |
| AGCTCTCC | -0.237 |
| CAGTAACA | 0.0741 |
| CCAAGCCC | -0.303 |
| GTTGCGGA | 0.123 |
| TTGATCAA | 0.194 |
| ACGGACGA | -0.238 |
| TAACCTGA | 0.0581 |
| ATGTTTTA | 0.248 |
| AGCATCTG | -0.136 |

| Sequence | PBM 8-mer E-score |
| --- | --- |
| AGAGAGCC | -0.296 |
| CAAAATGC | -0.0608 |
| AGCCTGTC | -0.172 |
| AATATGGC | 0.27 |
| AGTGCACA | 0.0205 |
| AGGGTTAT | -0.0153 |
| CCATGAGA | -0.0578 |
| GCTATGTA | 0.0911 |
| ACATTGGG | 0.0365 |
| GTGGGATA | 0.139 |
| ATCAGTGG | 0.00645 |
| CTAACGCC | -0.177 |
| ATTCTACA | 0.117 |
| AAATTGGG | 0.16 |
| AGAGGGCC | -0.342 |
| TACTTAGA | 0.254 |
| ACCAGGCA | -0.225 |
| ACCCGTCC | -0.209 |
| CTGTGCCC | -0.15 |
| AGTGTTCA | 0.0961 |
| GAGGAGAC | -0.252 |
| AAGCGCGC | -0.109 |
| ACGTGCTG | -0.108 |
| GAAACCAA | 0.121 |
| CCTCGATC | -0.292 |

| Sequence | PBM 8-mer E-score |
| --- | --- |
| CGATACGC | -0.172 |
| TCCTAGAA | -0.105 |
| ATAGGGCC | -0.187 |
| TCCGGGCA | -0.134 |
| CCGAGTTC | -0.167 |
| GACACAAC | 0.0534 |
| GTCACCAA | -0.101 |
| AATGGGGA | -0.196 |
| TGGGGGAA | -0.14 |
| CCACGGTA | -0.236 |
| ACGCGCTG | -0.0976 |
| AATGGGCG | -0.13 |
| AAGAGTTA | 0.207 |
| CGAGCCTA | -0.211 |
| AAACAGTA | 0.162 |
| GCATATGA | 0.176 |
| CATACCGC | -0.157 |
| CCTTTAGC | -0.191 |
| ACCGATCC | -0.0999 |
| CTGCACGA | -0.103 |
| AAACGTTT | 0.255 |
| AGCTCGTG | -0.226 |
| GCCTCCAC | -0.271 |
| CCCATGAA | -0.00329 |
| ATGCAGAC | -0.109 |

| Sequence | PBM 8-mer E-score |
| --- | --- |
| TCAGGCAA | -0.0104 |
| AACAAATG | 0.172 |
| CCTTTTAC | -0.0247 |
| ACTTAGAT | 0.255 |
| GGACATAC | -0.0194 |
| CTTCCAAA | 0.0228 |
| CGGAGCTC | -0.312 |
| GAAGATCC | -0.184 |
| CCCGCGAA | -0.287 |
| ATCGTAAG | 0.0508 |
| ACTGCCGC | -0.0771 |
| AGTAAAAC | 0.282 |
| CGTGCATC | -0.363 |
| CATAGAAC | 0.00582 |
| AGATAACA | 0.212 |
| GTGCTCTA | -0.0912 |
| CAGCTAGA | -0.179 |
| AACGTTTG | 0.0612 |
| TCAGCCGA | -0.187 |
| ACCCATAG | -0.212 |
| AAGACCTC | -0.18 |
| AAGCGCTG | -0.235 |
| CTCAAGGA | -0.151 |
| ATATAAGA | 0.388 |
| ACCCGTTA | 0.0361 |

| Sequence | PBM 8-mer E-score |
| --- | --- |
| AAATAAGA | 0.309 |
| GCAGGACA | -0.193 |
| CCTCGCTA | -0.179 |
| CTGTTACA | 0.111 |
| CAAGGAAC | -0.235 |
| AGGCCAAA | -0.18 |
| CTGTCGAA | 0.0728 |
| CAATGCTA | 0.00521 |
| CGTTTGCA | 0.0116 |
| CCGCTCGC | -0.22 |
| AGCTAACG | -0.252 |
| AGTGATAA | 0.167 |
| AAGATTCG | 0.0317 |
| GCTTAAGA | 0.00809 |
| AAAGCAAG | 0.123 |
| GACTGCGC | -0.216 |
| AACCCGGC | -0.237 |
| AGTCGGGA | -0.0266 |
| CGGATGAA | -0.105 |
| CTTTAAAC | 0.229 |
| GCTCTTCA | -0.0413 |
| CATACTCA | 0.127 |
| TAGGGGCA | -0.0405 |
| ATAAAACA | 0.317 |
| ACCTCGTA | 0.0276 |

| Sequence | PBM 8-mer E-score |
| --- | --- |
| CGCCACAC | -0.0153 |
| CCATAGCA | -0.107 |
| CCCTCTGC | -0.243 |
| CCGATACA | -0.0952 |
| CACAGTAG | 0.0439 |
| CCATCTTA | 0.0199 |
| CGAGGGAG | -0.215 |
| ACTAGTTG | 0.207 |
| GTACAGAC | -0.106 |
| AATCGGTC | 0.0705 |
| AATGGCGG | -0.0222 |
| CTCAAACC | -0.113 |
| ATGCTGCG | -0.00651 |
| GATAACGA | 0.0582 |
| GACTCGCA | -0.178 |
| AAGTCTGG | -0.0269 |
| ATCATATG | 0.241 |
| CAGCAGCA | 0.0184 |
| AGTCTGCA | -0.0161 |
| CCCTCTAG | -0.207 |
| CACAATGA | 0.0252 |
| CAAAATTG | 0.265 |
| ATGTAGAG | 0.0839 |
| ATCCATCG | -0.15 |
| GACAGGTC | -0.275 |

| Sequence | PBM 8-mer E-score |
| --- | --- |
| GCAGGCGA | -0.235 |
| CGGACTTA | 0.00982 |
| CAGCGTTA | 0.0962 |
| TAAATAAA | 0.421 |
| AAGGGCGC | -0.103 |
| CCGGCCAC | -0.343 |
| AGGTATGC | -0.032 |
| ACTAAGTA | 0.243 |
| ATAGTGCG | 0.253 |
| AACACGGA | 0.0166 |
| CATCTACC | -0.0236 |
| ACGCGGGG | -0.182 |
| CACTGCTA | -0.0266 |
| CCCCTAGC | -0.343 |
| GGCACGCA | -0.262 |
| ACAGTAAC | 0.21 |
| CAATCCTA | -0.065 |
| AGTCGGGG | -0.0771 |
| AGACCTAG | -0.244 |
| AACTAGTG | 0.19 |
| CGTCCGAG | -0.195 |
| GATAACCA | -0.0873 |
